In patent US5545639A, “Method of inhibiting transformed cells” (The United States of America as represented by the …, priority 1994, dated 1996):

Experiment: Example 4: toxicity in whole animals, intraperitoneal injection in mice
Conditions: i.p.
Description: Another set of mice were treated similarly with the bis(bromomethyl)phenanthroline derivative; all died when given a dose of 60 mg/kg of body mass. […] These toxicity data were provided by The Developmental Therapeutics Program of the National Cancer Institute.

Row | Structure (SMILES) | deaths (dose of 60 mg/kg of body mass) | toxic effects / deaths (240 mg/kg of body mass in five consecutive days)
1 | BrCc1ccc2ccc3ccc(CBr)nc3c2n1 [2,9-bis(bromomethyl)-1,10-phenanthroline] | all died | –
2 | ClCc1ccc2ccc3ccc(CCl)nc3c2n1 [2,9-bis(chloromethyl)-1,10-phenanthroline] | – | displayed no toxic effects, i.e., none of the experimental animals died or displayed any deleterious effects
